Molecular target: T1, human apical domain TfR (human, UniProt P02786 198-378)
T1 construct: The SPR analyte is printed only as "human apical domain TfR"; also called human TfR; human transferrin receptor 1 apical domain
Test: Biacore SPR as in Example 2; steady-state fit
Procedure: To determine whether SGSH-Fc fusion proteins with engineered TfR binding affects the ability of the modified Fc domain to interact with human TfR, the affinity of ETV: SGSH Bizyme Structure 1 (Example 1) for human TfR was assessed using a Biacore™ surface plasmon resonance assay. Biacore™ Series S CM5 sensor chips were immobilized with anti-human Fab (human Fab capture kit from GE Healthcare). 5 μg/mL of the SGSH-Fc fusion proteins were captured for 1 minute on each flow cell and serial 3-fold dilutions of human apical domain TfR were injected at a flow rate of 30 μL/min. Each sample was analyzed with a 3-minute association and a 3-minute dissociation. After each injection, the chip was regenerated using 10 mM glycine-HCl (pH 2.1). Binding response was corrected by subtracting the RU from a flow cell capturing an irrelevant IgG at similar density. Steady-state affinities were obtained by fitting the response at equilibrium against the concentration using Biacore™ T200 Evaluation Software v3.1. Biacore™ analysis established that SGSH-Fc fusion proteins with a TfR-binding site engineered into the Fc region bind to human TfR.

human apical domain TfR, sequence (P02786 198-378 limits assumed): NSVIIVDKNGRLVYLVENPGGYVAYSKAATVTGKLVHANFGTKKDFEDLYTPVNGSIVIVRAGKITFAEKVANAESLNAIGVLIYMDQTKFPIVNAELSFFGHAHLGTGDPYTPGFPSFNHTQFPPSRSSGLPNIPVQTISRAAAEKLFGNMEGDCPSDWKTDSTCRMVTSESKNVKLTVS

Kd: 290 nM
B1: ETV:SGSH Bizyme Structure 1 (Fc fusion)
chain 1: RPRNALLLLADDGGFESGAYNNSAIATPHLDALARRSLLFRNAFTSVSSCSPSRASLLTGLPQHQNGMYGLHQDVHHFNSFDKVRSLPLLLSQAGVRTGIIGKKHVGPETVYPFDFAYTEENGSVLQVGRNITRIKLLVRKFLQTQDDRPFFLYVAFHDPHRCGHSQPQYGTFCEKFGNGESGMGRIPDWTPQAYDPLDVLVPYFVPNTPAARADLAAQYTTVGRMDQGVGLVLQELRDAGVLNDTLVIFTSDNGIPFPSGRTNLYWPGTAEPLLVSSPEHPKRWGQVSEAYVSLLDLTPTILDWFSIPYPSYAIFGSKTIHLTGRSLLPALEAEPLWATVFGSQSHHEVTMSYPMRSVQHRHFRLVHNLNFKMPFPIDQDFYVSPTFQDLLNRTTAGQPTGWYKDLRHYYYRARWELYDRSRDPHETQNLATDPRFAQLLEMLRDQLAKWQWETHDPWVCAPDGVLEEKLSPQCQPLHNELGGGGS[in this place human IgG1 Fc with changes]
chain 2: RPRNALLLLADDGGFESGAYNNSAIATPHLDALARRSLLFRNAFTSVSSCSPSRASLLTGLPQHQNGMYGLHQDVHHFNSFDKVRSLPLLLSQAGVRTGIIGKKHVGPETVYPFDFAYTEENGSVLQVGRNITRIKLLVRKFLQTQDDRPFFLYVAFHDPHRCGHSQPQYGTFCEKFGNGESGMGRIPDWTPQAYDPLDVLVPYFVPNTPAARADLAAQYTTVGRMDQGVGLVLQELRDAGVLNDTLVIFTSDNGIPFPSGRTNLYWPGTAEPLLVSSPEHPKRWGQVSEAYVSLLDLTPTILDWFSIPYPSYAIFGSKTIHLTGRSLLPALEAEPLWATVFGSQSHHEVTMSYPMRSVQHRHFRLVHNLNFKMPFPIDQDFYVSPTFQDLLNRTTAGQPTGWYKDLRHYYYRARWELYDRSRDPHETQNLATDPRFAQLLEMLRDQLAKWQWETHDPWVCAPDGVLEEKLSPQCQPLHNELGGGGSDKTHTCPPCPAPEAAGGPSVFLFPPKPKDTLMISRTPEVTCVVVDVSHEDPEVKFNWYVDGVEVHNAKTKPREEQYNSTYRVVSVLTVLHQDWLNGKEYKCKVSNKALPAPIEKTISKAKGQPREPQVYTLPPSRDELTKNQVSLWCLVKGFYPSDIAVEWESYGTEWANYKTTPPVLDSDGSFFLYSKLTVTKEEWQQGFVFSCSVMHEALHNHYTQKSLSLSPGK
modifications: SGSH cysteine at position 70 (full-length SGSH numbering) largely converted to formylglycine (fGly 98% in Table 2); the fGly form is SEQ ID NO:91; SGSH cysteine at position 70 (full-length SGSH numbering) largely converted to formylglycine (fGly 98% in Table 2); the fGly form is SEQ ID NO:63
notes: Heterodimer of two SGSH-Fc fusion polypeptides; The preparation may be a mixture of processed and unprocessed forms; also called first "N-terminal bizyme" SGSH-Fc fusion protein
